{
  "source": "paper PMC4336329",
  "about": "(PLoS ONE, 2015)",
  "note": "The campaign covered roughly 310,000 compounds. About 14,000 (4.5%) showed an effect of 50% or more. Effects have a minus sign here. Some of the results follow.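 Also: peak tail current of the secondary pulse compared with the same well before compound.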",
  "data": [
    {"target": "human ether-à-go-go-related gene (hERG) potassium channel (human, UniProt Q12809)", "sequence (Q12809 whole entry, looked up)": "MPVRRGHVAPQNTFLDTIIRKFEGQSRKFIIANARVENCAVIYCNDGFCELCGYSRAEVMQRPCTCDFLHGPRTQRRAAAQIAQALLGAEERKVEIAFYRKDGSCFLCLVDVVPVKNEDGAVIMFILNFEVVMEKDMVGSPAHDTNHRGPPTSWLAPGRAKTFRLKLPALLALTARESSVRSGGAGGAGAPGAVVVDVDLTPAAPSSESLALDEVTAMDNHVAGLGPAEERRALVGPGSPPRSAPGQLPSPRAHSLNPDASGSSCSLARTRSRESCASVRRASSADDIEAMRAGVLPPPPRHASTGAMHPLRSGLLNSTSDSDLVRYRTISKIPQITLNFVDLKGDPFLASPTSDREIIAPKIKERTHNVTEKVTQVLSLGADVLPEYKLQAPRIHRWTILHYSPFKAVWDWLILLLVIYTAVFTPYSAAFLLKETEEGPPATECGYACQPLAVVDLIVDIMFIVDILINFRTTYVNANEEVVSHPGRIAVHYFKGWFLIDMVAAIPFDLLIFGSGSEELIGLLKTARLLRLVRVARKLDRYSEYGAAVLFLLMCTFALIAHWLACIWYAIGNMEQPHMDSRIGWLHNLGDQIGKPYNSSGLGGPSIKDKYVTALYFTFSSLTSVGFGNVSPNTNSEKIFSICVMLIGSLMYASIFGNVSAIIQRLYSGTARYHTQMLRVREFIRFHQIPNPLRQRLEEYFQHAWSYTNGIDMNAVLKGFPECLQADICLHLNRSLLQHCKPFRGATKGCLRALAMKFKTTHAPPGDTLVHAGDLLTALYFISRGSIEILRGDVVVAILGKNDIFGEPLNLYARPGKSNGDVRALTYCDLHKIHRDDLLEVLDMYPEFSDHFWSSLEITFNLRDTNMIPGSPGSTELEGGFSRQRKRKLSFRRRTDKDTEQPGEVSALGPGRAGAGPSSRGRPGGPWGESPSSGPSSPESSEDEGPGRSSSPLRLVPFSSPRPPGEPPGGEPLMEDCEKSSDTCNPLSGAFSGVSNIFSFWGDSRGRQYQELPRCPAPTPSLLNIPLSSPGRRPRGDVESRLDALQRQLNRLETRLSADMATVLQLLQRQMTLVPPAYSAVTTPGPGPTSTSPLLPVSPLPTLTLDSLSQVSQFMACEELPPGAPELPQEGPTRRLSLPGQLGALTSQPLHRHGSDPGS", "test": "primary screen, population patch clamp on CHO cells stably expressing hERG", "units": {"hERG current change (%, negative = inhibition) at 10uM": "%"}, "values": [
      {"compound": "COc1ccccc1OCC(=O)Nc1ccccc1C(=O)N1CCCCC1", "hERG current change (%, negative = inhibition) at 10uM": 11.6},
      {"compound": "CC1CN(c2ccc(S(=O)(=O)N3CCOCC3)cn2)CC(C)O1", "note": "(stereo not drawn)", "hERG current change (%, negative = inhibition) at 10uM": 18.7},
      {"compound": "CCCCn1c(N)c(N(CCOC)C(=O)C2CCN(S(=O)(=O)c3ccc(C)cc3)CC2)c(=O)[nH]c1=O", "hERG current change (%, negative = inhibition) at 10uM": 14.1},
      {"compound": "CCc1nnc(NC(=O)c2ccc(S(=O)(=O)NC3CCCCC3)cc2)s1", "hERG current change (%, negative = inhibition) at 10uM": 13},
      {"compound": "O=C(Nc1ncc(Cl)cn1)c1cccs1", "hERG current change (%, negative = inhibition) at 10uM": 25.9},
      {"compound": "COC(=O)C1=C(c2cccc(C#N)c2)C[C@@H]2CC[C@H]1N2C(=O)NC1CCCCC1", "hERG current change (%, negative = inhibition) at 10uM": -12},
      {"compound": "CC(=O)Nc1ccc(Nc2cc(C)nc3c(-c4ccc(Cl)cc4)c(C)nn23)cc1", "hERG current change (%, negative = inhibition) at 10uM": 3.05},
      {"compound": "O=C(COC(=O)CCC(=O)c1ccccc1)NCCc1ccccc1", "hERG current change (%, negative = inhibition) at 10uM": -10.4},
      {"compound": "Cc1c(C(=O)O)sc2ncnc(N3CCCCC3C)c12", "note": "(stereo not drawn)", "hERG current change (%, negative = inhibition) at 10uM": 13.6},
      {"compound": "CCc1cccc(NC(=O)C2CCCN(S(=O)(=O)c3c(C)[nH]c(=O)[nH]c3=O)C2)c1", "note": "(stereo not drawn)", "hERG current change (%, negative = inhibition) at 10uM": 10.1},
      {"compound": "CC(=O)Nc1ccc(N=Cc2c(O)ccc3ccccc23)cc1", "hERG current change (%, negative = inhibition) at 10uM": 14.6},
      {"compound": "CC1=Nc2ccccc2N=C(NC(=O)CSC(=S)N2CCCCC2)C1c1ccccc1", "note": "(stereo not drawn)", "hERG current change (%, negative = inhibition) at 10uM": -1.22},
      {"compound": "O=C(CSc1ncccn1)NCc1cccs1", "hERG current change (%, negative = inhibition) at 10uM": 11.7},
      {"compound": "Cc1cc(/C=C2/NC(=O)NC2=O)c(C)n1-c1ccccn1", "hERG current change (%, negative = inhibition) at 10uM": -4.99},
      {"compound": "CSc1ccc(NC(=O)Nc2cccn(Cc3ccccc3F)c2=O)cc1", "hERG current change (%, negative = inhibition) at 10uM": 19.3},
      {"compound": "C=CCNc1nc(C)c(C(C)=O)cc1C#N", "hERG current change (%, negative = inhibition) at 10uM": 6.83},
      {"compound": "Cc1nn(C(=O)CCC(=O)NCc2cccc(F)c2)c2ccccc12", "hERG current change (%, negative = inhibition) at 10uM": 19.2},
      {"compound": "Nc1cc(N)nc(SCC(=O)Nc2ccc3c(c2)OCCCO3)n1", "hERG current change (%, negative = inhibition) at 10uM": 8.03},
      {"compound": "CC(C)[C@@H]1N[C@]2(C(=O)Nc3ccccc32)[C@@H]2C(=O)N(c3cccc(C(F)(F)F)c3)C(=O)[C@@H]21", "hERG current change (%, negative = inhibition) at 10uM": -7},
      {"compound": "CCOc1ccc(N2CC(C(=O)NCCc3ccc(S(N)(=O)=O)cc3)CC2=O)cc1", "note": "(stereo not drawn)", "hERG current change (%, negative = inhibition) at 10uM": 12.1},
      {"compound": "O=C(c1cc(-c2ccc(Cl)s2)nc2ccccc12)N1CCOCC1", "hERG current change (%, negative = inhibition) at 10uM": -17},
      {"compound": "COc1cc(/C=N/NC(=O)c2cccnc2)ccc1OC(=O)c1ccc2c(c1)OCO2", "hERG current change (%, negative = inhibition) at 10uM": 24.4},
      {"compound": "N=Cc1c(O)n(-c2cccc(Cl)c2)c(=O)[nH]c1=O", "hERG current change (%, negative = inhibition) at 10uM": -10.3},
      {"compound": "CC(C)Oc1ccc(S(=O)(=O)N(C(C)C)C(C)C)cn1", "hERG current change (%, negative = inhibition) at 10uM": 1.44}
    ]}
  ]
}
